From PubChem BioAssay AID588342 (National Center for Advancing Translational Sciences (NCATS), 2011)
Among all 360,000 compounds or so, about 25,000 (6.9%) were called active. The shares of active, inactive and inconclusive entries below differ from those in the screen. Calls come from the whole dose curve; as a rule, active = well fitted inhibition curve with a large enough effect; inconclusive = small, poorly fitted or top-dose-only effect; inactive = flat fitted curve, though single readings scatter. Potencies beside an inconclusive call are fits to weak or partial responses and may not hold up.

target: Luciferin 4-monooxygenase (Photinus pyralis) (UniProt P08659); assay: qHTS profiling assay for firefly luciferase inhibitor/activator using purifed enzyme and Km concentrations of substrates (counterscreen for miR-21 project); conditions: purified FLuc, luminescence inhibition; series mostly up to 57.5 µM; note: nearly all actives have a fitted effect of over 55% in size
Summary of the method: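 Purified P. pyralis luciferase, 10 nM final, with Km-level 10 uM D-luciferin and 10 uM ATP in 50 mM Tris acetate pH 7.5, 10 mM Mg acetate, 0.01% Tween-20, 0.05% BSA; 6-point qHTS titration about 60 µM downward; luminescence read.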
Potency is the fitted concentration of half-maximal effect; tags give direction and shape of the fitted curve.

Chain of UniProt P08659 (P08659 whole entry, looked up): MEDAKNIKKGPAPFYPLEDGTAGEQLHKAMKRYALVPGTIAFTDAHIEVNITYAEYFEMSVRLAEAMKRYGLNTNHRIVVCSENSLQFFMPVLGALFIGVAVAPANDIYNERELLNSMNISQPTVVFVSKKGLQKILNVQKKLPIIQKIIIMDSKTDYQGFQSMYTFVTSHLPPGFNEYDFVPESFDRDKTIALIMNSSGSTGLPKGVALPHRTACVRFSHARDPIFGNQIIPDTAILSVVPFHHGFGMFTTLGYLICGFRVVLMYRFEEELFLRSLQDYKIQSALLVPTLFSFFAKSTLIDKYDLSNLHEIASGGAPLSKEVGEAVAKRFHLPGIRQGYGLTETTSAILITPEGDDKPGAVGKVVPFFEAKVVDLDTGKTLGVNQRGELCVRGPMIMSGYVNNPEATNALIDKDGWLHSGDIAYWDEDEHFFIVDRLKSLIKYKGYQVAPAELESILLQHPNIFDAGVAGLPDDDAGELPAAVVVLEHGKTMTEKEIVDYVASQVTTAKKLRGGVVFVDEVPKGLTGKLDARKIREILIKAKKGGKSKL

Row | SMILES | Potency
1 | Cc1ccc(-c2cc(C(=O)Oc3ccccc3)c3cc(C)ccc3n2)cc1 | active: 21.3 µM
2 | O=C(Nc1ccc(Cl)cc1)N1CCN(c2ccccc2)CC1 | inconclusive: 19 µM [inhibitor, single point]
3 | CC(On1c(-c2ccccc2)nc2ccc(Cl)cc21)C(=O)O (stereo not given) | inconclusive: 26.9 µM [inhibitor, partial curve, poor fit]
4 | O=C(Nc1cccnc1)c1sc(Nc2ccccc2)nc1-c1ccccc1 | inconclusive: 8.49 µM [inhibitor, partial curve, poor fit]
5 | COc1ccc(CCC(=O)OCC(=O)NCc2ccc3c(c2)OCO3)cc1 | inactive
6 | Fc1ccccc1Cn1c(-c2ccccc2)nc2ccccc21 | inconclusive: 37.9 µM [inhibitor, partial curve, poor fit]
7 | O=C(/C=C/c1ccccc1)NC(=O)c1ccccc1O | active: 1.69 µM
8 | CC(C)c1c(C(=O)N/N=C/C2CC=CCC2)nnn1-c1nonc1N (stereo not given) | inconclusive: 26.9 µM [inhibitor, single point]
9 | Cc1ccc(-c2noc(-c3ccccc3C(=O)N3CCN(C)CC3)n2)cc1 | inconclusive: 26.9 µM [inhibitor, single point]
10 | Cc1cc(OC(=O)c2c(C)cc(O)cc2O)cc(O)c1C(=O)O | inconclusive: 21.3 µM [inhibitor, single point]
11 | Cc1cccc2nc(-c3cccc(NS(=O)(=O)c4ccccc4)c3)cn12 | inconclusive: 26.9 µM [inhibitor, partial curve]
12 | Cc1ccc(C)c(CSc2nc3ccncc3n2CC(=O)Nc2ccc(N(C)C)cc2)c1 | inconclusive: 37.9 µM [inhibitor, partial curve, poor fit]
13 | c1cncc(-c2nc3ccccc3o2)c1 | inconclusive: 26.9 µM [inhibitor, partial curve, poor fit]
14 | O=C(CNC(=O)C1CCCCC1)NCc1ccco1 | inactive
15 | Cc1ccc(C)c(Cn2c3ccccc3c3cnn(CC(=O)NCc4ccccc4)c(=O)c32)c1 | inactive
16 | Cc1ccc(NC(=O)CSc2nc(-c3ccco3)nc3cc(=O)[nH]n23)cc1C | inconclusive: 15.1 µM [inhibitor, partial curve]
17 | COC(=O)c1cnn(-c2nc(-c3ccccc3)cs2)c1N | active: 2.69 µM
18 | Cc1cccc(CC(=O)Nc2ccc(C(=O)N3CCCCC3)cc2)c1 | inconclusive: 30.1 µM [inhibitor, partial curve, poor fit]
19 | Cc1oc2ccc(OCc3ccc(F)cc3Cl)cc2c1C(=O)O | inconclusive: 30.1 µM [inhibitor, partial curve, poor fit]
20 | Cc1ccc(C(=O)Nc2ccc(-c3nc4ccccc4s3)cc2C)cc1C | inconclusive: 12 µM [inhibitor, partial curve]
21 | CCOC(=O)Cc1csc(NC(=O)c2ccc(F)cc2)n1 | inconclusive: 26.9 µM [inhibitor, single point]
22 | CCC(=O)N1N=C(c2ccc(C)o2)CC1c1ccc(Br)cc1 (stereo not given) | inconclusive: 26.9 µM [inhibitor, partial curve, poor fit]
23 | COc1ccc(/C=N/NC(=O)c2cccc(NC(=O)c3ccccc3Cl)c2)c(OC)c1 | active: 4.26 µM
24 | Cn1c2c(c3ccccc31)CC/C2=N\O | inconclusive: 26.9 µM [inhibitor, partial curve, poor fit]

Row | SMILES | Potency
25 | O=C(c1ccc(CSc2nc3ccncc3[nH]2)cc1)N1CCCCC1 | inconclusive: 37.9 µM [inhibitor, single point]
26 | O=C(N/N=C/c1cccnc1)c1ccc([N+](=O)[O-])cc1Cl | inconclusive: 21.3 µM [inhibitor, partial curve, poor fit]
27 | COc1ccc(NC(=O)c2noc(C(C)C)c2[N+](=O)[O-])cc1 | inconclusive: 37.9 µM [inhibitor, partial curve, poor fit]
28 | c1ccc2cc3[nH]c(CN4CCCCC4)nc3cc2c1 | inconclusive: 23.9 µM [inhibitor, single point]
29 | CCN(CC(=O)Nc1ccc(NC(C)=O)cc1)C(=O)c1sc2nc3n(c(=O)c2c1C)CCC3 | inconclusive: 26.9 µM [inhibitor, single point]
30 | CCOC(=O)c1ccccc1NC(=O)COC(=O)CCC(=O)c1ccc(C)cc1 | inconclusive: 23.9 µM [inhibitor, single point]
31 | CCOC(=O)C1(Cc2ccccc2C)CCCN(C(=O)CCc2c(C)noc2C)C1 (stereo not given) | inactive
32 | COc1ccc2nc(NC(=O)c3cccc(-c4cc5ccccc5oc4=O)c3)sc2c1 | inconclusive: 12 µM [inhibitor, partial curve]
33 | CCn1c(SCC(=O)Nc2oc(-c3ccccc3)c(-c3ccccc3)c2C#N)nnc1-c1ccco1 | inactive
34 | COc1ccc(Cl)cc1NC(=O)NCc1cccnc1 | active: 15.1 µM
35 | Cc1cc(C(=O)NC2CCCCC2)on1 | inactive
36 | CCCCCCSc1nsc(NC(=O)CC(C)C)n1 | inconclusive: 23.9 µM [inhibitor, single point]
37 | O=C(O)CSc1cc(NS(=O)(=O)c2ccc(Br)cc2)c2ccccc2c1O | inconclusive: 23.9 µM [inhibitor, partial curve]
38 | Cc1cccc2c1-c1sc(C(=O)N(C)c3cccc(C(F)(F)F)c3)cc1CO2 | inactive
39 | CN1C(=O)c2ccc(N3CCCC3)cc2C1=O | inconclusive: 26.9 µM [inhibitor, partial curve]
40 | CCc1ccc(C(=O)Cn2ncc(Cl)c(Cl)c2=O)cc1 | active: 7.57 µM
41 | Cc1csc2nc(COc3ccccc3NC(=O)c3ccc(C(C)(C)C)cc3)cc(=O)n12 | inactive
42 | O=C(O)CSCc1nc2scc(-c3ccccc3)c2c(=O)[nH]1 | inconclusive: 37.9 µM [inhibitor, partial curve, poor fit]
43 | O=C(Nc1ccc(S(=O)(=O)N2CCCCC2)cc1)c1ccc(F)cc1 | inactive
44 | COc1cc(/C=N/NC(=O)c2cc(C)n(-c3ccc(F)cc3)c2C)cc(OC)c1O | active: 15.1 µM
45 | O=C(CN1C(=O)/C(=C/c2ccccc2)SC1=S)N1CCN(CCc2ccccn2)CC1 | inconclusive: 26.9 µM [inhibitor, partial curve]
46 | CCOC(=O)N1CCN(C(=O)/C(=C/c2ccc(N(C)C)cc2)NC(=O)c2ccccc2)CC1 | inactive
47 | COc1cccc(NC(=O)C2CCN(c3nn4cc(-c5ccc(F)cc5)nc4s3)CC2)c1 | inconclusive: 21.3 µM [inhibitor, partial curve, poor fit]
48 | CCOc1ccccc1OCCCOc1ccc(C)cc1Br | active: 10.7 µM

Row | SMILES | Potency
49 | O=C(COc1ccc(Cl)cc1Cl)NNC(=S)NC(=O)c1ccco1 | inconclusive: 23.9 µM [inhibitor, single point]
50 | O=C1c2ccc(-c3ccc4c(c3)C(=O)N(CCO)C4=O)cc2C(=O)N1CCO | inconclusive: 26.9 µM [inhibitor, partial curve, poor fit]
51 | Cc1cccc(N=C2NC(=O)/C(=C/c3cccn3C)S2)c1C | inconclusive: 37.9 µM [inhibitor, single point]
52 | Cc1ccc(S(=O)(=O)C2(S(=O)(=O)c3ccc(C)cc3)CC2)cc1 | inactive
53 | CCc1ccc(NCc2nc(-c3ccccc3)no2)cc1 | inconclusive: 21.3 µM [inhibitor, single point]
54 | Fc1cccc(CSc2nc3ccncc3[nH]2)c1 | inconclusive: 30.1 µM [inhibitor, single point]
55 | O=C(Nc1ccccc1)c1ccc(Br)o1 | inconclusive: 26.9 µM [inhibitor, single point]
56 | Cc1ccc(N(CC(O)CON=C2c3ccccc3-c3ccccc32)S(C)(=O)=O)cc1 (stereo not given) | inactive
57 | CN(C)S(=O)(=O)c1ccc(C(=O)OCC(=O)NCc2ccccc2)cc1 | inactive
58 | Cc1c(C)c2ccc(OCC(=O)Nc3cccnc3)cc2oc1=O | inconclusive: 8.49 µM [inhibitor, partial curve]
59 | C/C(Cc1ccccc1)=N\NC(=O)CNC(=O)c1cccc(Br)c1 | inconclusive: 33.8 µM [inhibitor, single point]
60 | Cc1cc2nc(-c3ccc(NC(=O)C(C)C)cc3)oc2cc1C | active: 0.849 µM
61 | O=C(NC1CCSC1=O)c1ccccc1 (stereo not given) | inactive
62 | Cc1nn(-c2ccccc2)c(N2CCCC2)c1/C=C1\N=C(c2ccc(F)cc2)OC1=O | inactive
63 | C=CCn1c(NCc2ccccc2OC)nc2ccccc21 | inconclusive: 37.9 µM [inhibitor, partial curve, poor fit]
64 | CCC(C)N(C(=O)CSc1ncnc2c1cnn2-c1ccccc1)C1CCS(=O)(=O)C1 (stereo not given) | inconclusive: 21.3 µM [inhibitor, single point]
65 | COc1ccc(NC2=NCC(Cc3ccc(Br)cc3)S2)cc1 (stereo not given) | inconclusive: 30.1 µM [inhibitor, partial curve, poor fit]
66 | O=C(CCC(=O)N1CCN(c2cccc(Cl)c2)CC1)c1cccs1 | inactive
67 | CCN1CCN(Cc2ccc(NC(=O)c3ccc(C)c(NC(=O)C4=NN(c5ccccc5)C(=O)C4)c3)cc2C(F)(F)F)CC1 | inconclusive: 21.3 µM [inhibitor, single point]
68 | CCn1c(N2CCN(C(=S)Nc3ccc(OC)cc3)CC2)nc2ccccc21 | inactive
69 | O=C(N/N=C/c1cccc(Cl)c1)C1CCCC1 | inconclusive: 37.9 µM [inhibitor, partial curve, poor fit]
70 | O=C(Cn1cc(SCc2ccccc2F)c2ccccc21)N1CCCCCC1 | inconclusive: 16.9 µM [inhibitor, partial curve]
